{"source": "paper PMC12136788", "binders": {"B1": {"name": "chr4:34756745:34756746:-_ENSMUSG00000039967_ENSMUST00000047950|mus_mus|motif|central (ssRNA)", "RNA": "GGGAGUUCUACAGUCCGACGAUCUAUAUUUGGACUUAGGACACUUUCCACUGAGGGUAACAAUGGAGCUGAUACACUUGCGGAAUGAGCUGGGAAAAUGGAAGGCGAGACAUGCUGCACCUGGGCUGAACAGGCAGGGUUCCCCAACAGAGGAUUGAGCAUCA"}, "B2": {"name": "chr4:76721835:76721836:+_ENSG00000138768_ENST00000264904|hu_mus|hu_hu_hu_mus_True|78_88 (ssRNA)", "RNA": "GGGAGUUCUACAGUCCGACGAUCGUUUGGCUGGGGUUUCUGAGACGUCUGGAAUACAACUCAUGUUUUGCUAAUAAAUCCUAGUUUCUCUAUGAAAUUCUCUUUGCCAAUCCUCUUCUCUAUUAGUUGCUUUAGUUUCUCUUUCAACAGAGGAUUGAGCAUCA"}, "B3": {"name": "chr8:104447970:104447971:+_ENSG00000164934_ENST00000297579|hu_hu|hu_hu_hu_mus_False|1_8 (ssRNA)", "RNA": "GGGAGUUCUACAGUCCGACGAUCAUACACUUCCCUGCUUCGGCUCUUGUCCACAGGAAAGAUUCUAAUAGACUUAUCAAAGCUGGCAGACACAAAUUCCUUCCCAGUGGGAGAGUAGUCCACAUCAAGCACUGCAGAUACAUGCAACAGAGGAUUGAGCAUCA"}, "B4": {"name": "50198208_50199318_3837_ncRNA_ENSMUSG00000007850_ENSMUST00000123371|mouse|control|control (ssRNA)", "RNA": "GGGAGUUCUACAGUCCGACGAUCCCAUUACUGUAGUAGCUGCUGUUCACUGCUCCUUGGCUACCUAUGCAAUGUUUGAUUGAAAAUCACUGGAGUUUUCCUGUAAAACUUGGUCAUAUCCGCUCAUGCUGCUCUGGCCACCGUCAACAGAGGAUUGAGCAUCA"}, "B5": {"name": "49307371_49344221_426_3pUTR_ENSMUSG00000069495_ENSMUST00000092123|mouse|control|control (ssRNA)", "RNA": "GGGAGUUCUACAGUCCGACGAUCGUAGGUGAUGUUCCGAUUCCUCCUCCUUCUCCAUCCCGGUGGGCAUCUGGGGCACGGCCCGGUUGAUGGAGACGCAGUCGUUGAGAUCAGGCAUGUCCUUGCCGCGGUAGAUGGGCAGCGCAACAGAGGAUUGAGCAUCA"}, "B6": {"name": "chr2:25965407:25965408:-_ENSG00000143970_ENST00000336112|hu_hu|FALSE|FALSE (ssRNA)", "RNA": "GGGAGUUCUACAGUCCGACGAUCCUGUGCUGCCUGAAUUAAAUCUCUGGCUAGGGUCUUUUCAUCAAAUGUUUGGCCUCUAGUGAACAGGUAAUUCUCCUUACUUAAAGUGGUUUGCUCAUUCAAUGGUAUCUCAGCCUUCACCAACAGAGGAUUGAGCAUCA"}, "B7": {"name": "chr16:84831616:84831617:-_ENSMUSG00000022890_ENSMUST00000023608|mus_hu|FALSE|FALSE (ssRNA)", "RNA": "GGGAGUUCUACAGUCCGACGAUCUCCUCCAGAUGUCUGUCGCUUAGAUUUGUAUUCUCUAAUCUUGUCCACAAAGAGUUUCUGUAUAGGAUCAAGUUCCUUAUUAAAUGCCACUGCUGUAACACCAAUGUUCCUCCGCAAAUGCAACAGAGGAUUGAGCAUCA"}, "B8": {"name": "chr14:78183846:78183847:+_ENSG00000119705_ENST00000557342|hu_hu|hu_hu_hu_mus_False|68_68 (ssRNA)", "RNA": "GGGAGUUCUACAGUCCGACGAUCUCUCAGAAAUCUUUCUUCAUCAGAUGUUUGAGCUCCGUGCAAAAGUUUUGGCCUUUGAGCUUGAACGUGGAUCUAUGGGAGGGAAAGCACUGUCAGAAAAGGUAAUUUUUUUUUUAAAGACAACAGAGGAUUGAGCAUCA"}, "B9": {"name": "chr2:73467608:73467609:+_ENSG00000135624_ENST00000258091|hu_hu|FALSE|FALSE (ssRNA)", "RNA": "GGGAGUUCUACAGUCCGACGAUCAUCUUGGGAUUUGGCAAUGUCUACCAAAGUCUUUGCUGCAGGAUGGACAACAUCAAGAAGUUUCAGAAUUGUGGCCCCAUCAUUAGAAAUUGUUGCUUUGCCUCUGCCAUCUACAAUAAGCAACAGAGGAUUGAGCAUCA"}, "B10": {"name": "chrX:154448470:154448471:+_ENSG00000155959_ENST00000286428|hu_hu|motif|central (ssRNA)", "RNA": "GGGAGUUCUACAGUCCGACGAUCAUCCAGCUUCUUUAAUACUGUAUCUGCAGUCUCAUUCCCAGGCUGUUUCAUGAAGGAAUCGGCAUCUUCCACAAACACGGCCUCAGGAAUCCCCAGGUGGAGCCGCCGCCCAUUCCCUGUCAACAGAGGAUUGAGCAUCA"}, "B11": {"name": "chr17:7479872:7479873:+_ENSG00000161960_ENST00000293831|hu_hu|FALSE|FALSE (ssRNA)", "RNA": "GGGAGUUCUACAGUCCGACGAUCAGCACGCACGUUGGUGCCCCCGAUACAGGCGUGACAGGAGGCGCCCAUGUAGUCUCCUAGUGCCAUGACCACCUUCUGUAUCUGCUGAGCCAAUUCUCGAGUGGGUGCUAGGACCAAGGCCAACAGAGGAUUGAGCAUCA"}, "B12": {"name": "chr1:39494564:39494565:+_ENSG00000168653_ENST00000372967|hu_hu|hu_hu_hu_mus_True|1_38 (ssRNA)", "RNA": "GGGAGUUCUACAGUCCGACGAUCAUGCAUUCGCCUCAUCGUUUUGUACCGAAGCAAGCACUCUUCGAAGUCAUCGAACUCUAUCUUGCACUCCUUUUCUGCCCGAGUCCCACCGAUCCCGUGUGCACACUCUAUCCAUUCUUUCAACAGAGGAUUGAGCAUCA"}, "B13": {"name": "chr14:76904430:76904431:+_ENSMUSG00000022010_ENSMUST00000022587|mus_mus|mus_mus_mus_hu_True|8_38 (ssRNA)", "RNA": "GGGAGUUCUACAGUCCGACGAUCUGCAGCCAAAAACACCCUCGUGGAAAAAAAGAGGGAACACCAGCAGCCUUGUAUAAGCUAGAUAAAAUCUUCUAGCUGUCUGCAGCCCAGGGAGAAACAGAAAUGGUGCUGGCUAAUUUACAACAGAGGAUUGAGCAUCA"}, "B14": {"name": "23106879_23112864_568_CDS_ENSG00000147457_ENST00000313219|human|control|control (ssRNA)", "RNA": "GGGAGUUCUACAGUCCGACGAUCUGGGCAGGAGUUAGCACAGAGGGUGCUGAGCUCUGACAGGGCCACCACGGGGUGGGAGGAGAGGGGCGAGUUCUGAUACAGACGAUACACCUCCUCAGCCUUUUCCUUCAACAGCUCCACCAACAGAGGAUUGAGCAUCA"}}, "note": "The list shows a part of the results.", "data": [{"biological_target": "T1, UNK ZnF1-3 (human, UniProt Q9C0B0 31-174)", "T1 sequence": "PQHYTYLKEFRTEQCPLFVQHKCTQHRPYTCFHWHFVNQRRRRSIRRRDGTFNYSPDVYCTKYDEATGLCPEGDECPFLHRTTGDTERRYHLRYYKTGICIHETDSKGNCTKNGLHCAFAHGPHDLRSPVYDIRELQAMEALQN", "test": "nsRBNS (natural sequence RNA bind-n-seq); RBNS binding buffer (assumed for nsRBNS): 25 mM Tris pH 7.5, 150 mM KCl, 3 mM MgCl2, 0.01% Triton X-100, 500 ug/ml BSA, 20 U/ml SUPERase-In, 4 C; UNK is unkempt and MSI1 is Musashi-1; names of the RNAs are library labels; protein concentration not given here; high values mean tight binding", "units": {"binding signal": "enrichment R"}, "values": [{"binder": "B1", "binding signal": 1.97}, {"binder": "B2", "binding signal": 0.454}, {"binder": "B3", "binding signal": 1.12}, {"binder": "B4", "binding signal": 0.566}, {"binder": "B5", "binding signal": 0.756}, {"binder": "B6", "binding signal": 0.591}, {"binder": "B7", "binding signal": 0.965}, {"binder": "B8", "binding signal": 1.49}, {"binder": "B9", "binding signal": 1.36}, {"binder": "B10", "binding signal": 0.795}, {"binder": "B11", "binding signal": 1.39}, {"binder": "B12", "binding signal": 0.8}, {"binder": "B13", "binding signal": 2.49}, {"binder": "B14", "binding signal": 2.38}]}]}
